Data: paper PMC4336329 (PLoS ONE, 2015)
Among all 310,000 compounds or so, about 14,000 (4.5%) showed an effect of 50% or more. Effects have a minus sign here. Some of the results follow.

Target: human ether-à-go-go-related gene (hERG) potassium channel (human, UniProt Q12809)
Experiment: primary screen, population patch clamp on CHO cells stably expressing hERG
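Note: peak tail current of the secondary pulse compared with the same well before compound.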

Sequence of human ether-à-go-go-related gene (hERG) potassium channel (Q12809 whole entry, looked up): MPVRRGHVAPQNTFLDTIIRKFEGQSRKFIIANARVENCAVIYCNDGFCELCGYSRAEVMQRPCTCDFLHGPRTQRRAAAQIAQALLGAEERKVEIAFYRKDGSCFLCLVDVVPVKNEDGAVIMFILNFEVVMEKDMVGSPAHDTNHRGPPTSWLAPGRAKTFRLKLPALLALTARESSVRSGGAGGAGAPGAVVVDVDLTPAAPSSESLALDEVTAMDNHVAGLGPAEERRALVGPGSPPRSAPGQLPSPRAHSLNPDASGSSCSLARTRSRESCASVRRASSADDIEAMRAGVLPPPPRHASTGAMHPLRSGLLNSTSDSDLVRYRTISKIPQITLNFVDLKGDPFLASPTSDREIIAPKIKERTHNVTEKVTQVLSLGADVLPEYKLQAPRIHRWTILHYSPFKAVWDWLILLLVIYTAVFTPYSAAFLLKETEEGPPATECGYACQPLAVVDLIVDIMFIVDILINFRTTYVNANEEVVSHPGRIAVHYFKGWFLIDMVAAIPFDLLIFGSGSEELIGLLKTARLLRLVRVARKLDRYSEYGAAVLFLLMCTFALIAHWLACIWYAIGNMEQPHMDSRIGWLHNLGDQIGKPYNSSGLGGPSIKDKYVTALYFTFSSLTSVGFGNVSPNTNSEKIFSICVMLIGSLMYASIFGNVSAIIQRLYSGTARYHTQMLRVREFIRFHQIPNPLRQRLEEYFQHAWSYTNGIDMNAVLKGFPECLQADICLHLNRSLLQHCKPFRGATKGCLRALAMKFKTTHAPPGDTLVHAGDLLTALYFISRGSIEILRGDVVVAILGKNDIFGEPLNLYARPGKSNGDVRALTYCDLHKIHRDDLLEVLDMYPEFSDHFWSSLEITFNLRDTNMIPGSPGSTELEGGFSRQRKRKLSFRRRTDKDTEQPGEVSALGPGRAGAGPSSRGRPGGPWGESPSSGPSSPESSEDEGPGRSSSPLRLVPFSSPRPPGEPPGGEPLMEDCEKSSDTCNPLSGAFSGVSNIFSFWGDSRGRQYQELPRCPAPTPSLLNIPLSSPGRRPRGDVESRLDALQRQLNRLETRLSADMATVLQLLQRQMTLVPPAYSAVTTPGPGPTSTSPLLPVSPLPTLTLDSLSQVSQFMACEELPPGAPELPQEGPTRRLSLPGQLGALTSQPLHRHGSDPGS

Compound | hERG current change (%, negative = inhibition) at 10uM [%]
CN(C)c1ccc(C2OC(=O)C3(CCCC3)C(=O)C2(C)C)cc1 (centres unmarked) | 0.307
CO/N=C/NC(=O)NOCc1c(Cl)cccc1Cl | 13.4
COC(=O)c1c2[n+](cc3cc(OC)c(OC)cc13)CCc1cc(OC)c(OC)cc1-2.[O-][Cl+3]([O-])([O-])[O-] | 15.6
CCN(CC)CC.COc1ccc(-n2c(=S)[nH]c3c(sc(=S)n3-c3ccccc3)c2=O)c(OC)c1 | 25.7
Cc1cccc(C)c1NC(=O)N1CCN(C2CCCCC2)CC1 | 18.5
CC(C)Sc1nc2sc(-c3ccccc3)cc2c(=O)n1N | 7.81
COc1ccc(C(C(=O)NC(C)(C)C)N(C(=O)CNC(=O)c2cccs2)c2cccnc2)cc1OC (centres unmarked) | 18.3
CCOc1ccc(NC(=S)NCc2ccco2)cc1 | 11.6
COc1cc(C(=O)NC(C(=O)Nc2cccc(C(C)=O)c2)C(C)C)cc(OC)c1OC (centres unmarked) | -4.13
CCOc1ccc(Nc2oc(-c3ccc(Cl)cc3)nc2C#N)cc1 | 9.08
Cc1ccc(C(=O)Nc2cccc3cccnc23)cc1C | 12.6
Cc1ccc(C(=O)N/N=c2\sc3ccccc3n2C)cc1 | -33.2
CCN(CC)C(=O)C1=C(C)NC(=S)NC1c1cn(-c2ccccc2)nc1-c1ccc(Cl)cc1 (centres unmarked) | -23.6
COc1ccc2[nH]c3nc(SCC(=O)NC4CC4)nnc3c2c1 | 1.09
CC(Sc1ccccc1)C(=O)N/N=C/c1cccnc1 (centres unmarked) | 1.43
CCOC(=O)C1C(=O)C=C(Nc2ccccc2F)CC1c1ccccc1 (centres unmarked) | -21.5
Cn1c2ccccc2c2cc([N+](=O)[O-])ccc21 | -7.7
C/C(=N\Nc1nc(C)cc(-c2ccccc2)n1)c1cccc(N)c1 | 15.6
COc1ccc2ccccc2c1CNCCCN1CCOCC1.Cl | -8.6
C#CCOCCOCCOCCNc1nc(N2CCN(C(=O)[C@H]([C@@H](C)CC)n3cc([C@@H](N)CC(C)C)nn3)CC2)nc(N2CCN(C(=O)[C@H](CCCCN)n3cc([C@@H](N)CC(C)C)nn3)CC2)n1.Cl | -10.1
C/C(=N\NC(=O)CO/N=C(\C)c1cccs1)c1ccc(N)cc1 | -5.57
COc1ccc(C2N3CC4(C)CN2CC(C)(C3)C4)cc1OC (centres unmarked) | 5.36
CCc1ccc(NC(=O)COC(=O)c2cccs2)cc1 | 4.77

Compound | hERG current change (%, negative = inhibition) at 10uM [%]
Cc1c(Cl)cccc1NC(=S)NCCN1CCOCC1 | 14.9
COC(=O)c1ccc(OCC(=O)NC2CCCCCC2)cc1 | 0.546
O=S(=O)(c1ccc(F)c(Cl)c1)N1CCN(C/C=C/c2ccccc2)CC1 | 10.2
COCCNC(=O)CN1CCC(NC(=O)c2ccco2)CC1 | 3.48
O=C(Cc1n[nH]c(=O)[nH]c1=O)N/N=C/c1c(O)ccc2ccccc12 | 27.2
CC(C)CNC(=O)CCCc1c[nH]c2ccccc12.O=C(O)C(=O)O | 7.13
C=CCn1c(N2CCOCC2)nc2c1c(=O)[nH]c(=O)n2C | 5.9
CC(C)NC(=O)c1cc(-c2cccs2)nc2ccccc12 | 9.89
N#CCCn1cc(/C=N/O)c(-c2ccc(-c3ccccc3)cc2)n1 | -4.41
O=C(NCc1csc(-c2ccccc2)n1)c1cc(F)cc2c1OCOC2 | 14
CCn1nnnc1SCC(=O)Nc1nc(C)c(C)s1 | 4.67
O=C(NNC(=O)C1CCC1)c1ccccc1F | 5.71
CCOC(=O)c1c(-n2c(C)cc(/C=C3/C(=O)NC(=O)N(CC)C3=O)c2C)sc2c1CCCC2 | 2.36
COc1ccc(Cl)cc1NC(=O)CCS(=O)(=O)c1cc2c(cc1C)NC(=O)CO2 | -35.3
Cc1cc(S(=O)(=O)N2CCOCC2)c(C)s1 | 9.26
Cc1ccc(Cn2c(CN3CC(C)OC(C)C3)nc3c2c(=O)[nH]c(=O)n3C)cc1 (centres unmarked) | -20.5
C/C(=N\Nc1ccccc1)c1c(O)n(-c2ccccc2)c(=O)[nH]c1=O | 11.7
COc1ccc2c(c1OC)C(=O)OC2C/C(=N\NC(N)=O)c1ccccc1 (centres unmarked) | 21.6
Cc1cc(C)c[n+](-c2[nH]c(=O)sc2/C=N/N=C(\N)[S-])c1 | 22
COc1cccc(OC)c1C(=O)Nc1ccc(CN2CCCCC2)cc1 | 10.6
COc1ccc(-c2csc3nc(C(C)C)oc(=O)c23)cc1OC | 7.65
CNC(=O)C(=O)Nc1ccc(C)cc1C | 8.65
O=C(NCCO)Nc1ccc2nc(-c3ccco3)c(-c3ccco3)nc2c1 | 27.2

Compound | hERG current change (%, negative = inhibition) at 10uM [%]
O=C(NC(=O)c1ccccc1O)c1ccc2c(c1)CCO2 | 17.7
CCO[C@H]1OC(C(=O)O)=C[C@@H](c2csc3ccccc23)[C@@H]1CCCO | 13
CC1(C)CC(=O)C(C(=O)c2ccccc2)C(=O)C1Cl (centres unmarked) | 3.06
COc1cc(NC(=O)CSc2nc3c(c(=O)n(C)c(=O)n3C)n2C)cc(OC)c1 | 2.2
Cc1nc(-n2[nH]c3c(c2=O)CCCC3)[nH]c(=O)c1Cc1ccccc1 | -0.389
Cc1cc2cc(CNC(=O)Cc3ccc([N+](=O)[O-])cc3)ccc2n1C | 9.49
Cc1cc2c3nonc3ccc2n1-c1ccccc1 | 15.9
Cc1cc(C)cc(NC(=O)c2ccc3nc[nH]c3c2)c1 | 14.7
Cc1ccc(C2c3c(oc4ccc(Cl)cc4c3=O)C(=O)N2CCCN2CCOCC2)o1 (centres unmarked) | -30
CCC1(C)N=C(N)Nc2nc3cc(C)c(C)cc3n21 (centres unmarked) | 15.3
CCOc1ccccc1-n1c(SCC(=O)N(CC)CC)nnc1-c1ccccn1 | -0.998
Cc1ccsc1C(=O)C1CCCN(Cc2cccc(-n3cccn3)c2)C1 (centres unmarked) | -65.4
Cc1ccc(S(=O)(=O)N(C)CC(=O)N2CCCCCC2)cc1 | 19.5
COc1ccc(C(=O)Nc2nnc(S(=O)(=O)N3CCOCC3)s2)cc1 | -3.02
O=c1oc2cc(Br)ccc2n1CSC1=NCCS1 | 5.69
O=C(c1ccccc1F)N1CCN(S(=O)(=O)c2ccc(S(=O)(=O)N3CCCCC3)cc2)CC1 | 4.29
CCOc1cc(OCC)cc(C(=O)NC(=S)Nc2cccc(C(F)(F)F)c2)c1 | 8.42
O=C(Cc1ccsc1)Nc1ccc(S(=O)(=O)C(F)F)cc1 | -8.71
COc1ccc(/C=N/NC(=O)c2c(C)nc3ccc(Br)cn23)cc1OC | -0.597
CCn1c(SCC(=O)NC2=NCCS2)nnc1C(C)NC(=O)c1ccc(Cl)cc1 (centres unmarked) | 14.2
Nc1nc(CSC(=S)N2CCN(c3ccccc3)CC2)nc(Nc2ccc(F)cc2)n1 | 2.14
S=C(NCCc1ccccc1)N1CCN(C(c2ccccc2)c2ccccc2)CC1 | -9.97
CC(=O)Nc1cc(Cl)ccc1OS(=O)(=O)c1ccc(C)cc1 | 6.28

Compound | hERG current change (%, negative = inhibition) at 10uM [%]
CCCCNCc1cccn1-c1ccccc1.O=C(O)C(=O)O | 1.78
O=C(NCC(c1cccnc1)N1CCN(c2ccc(F)cc2)CC1)c1ccc(F)cc1 (centres unmarked) | -47.6
COc1cccc(CC(=O)OCC(=O)NNC(=O)c2ccc([N+](=O)[O-])cc2)c1 | -38.1
COc1ccc(NS(=O)(=O)c2cc(C)ccc2NC(=O)c2cc(C)oc2C)cc1 | 2.49
CN(C)c1cc(-c2ccc([N+](=O)[O-])cc2)oc(=O)c1Cl | -18.5
O=C(Nc1ccc(Nc2ccccc2)cc1)Nc1ccccc1Cl | 1.14
COc1cccc(CN2CCN(c3ncccn3)CC2)c1OC | -3.3
Cc1cc(C(=O)CCl)c(C)n1CCc1ccc(Cl)cc1 | 14.1
O=c1c2c3c(sc2ncn1/N=C/c1ccncc1)CCCC3 | 12.4
COc1ccc(N(CC(=O)N2CCN(Cc3ccc4c(c3)OCO4)CC2)S(C)(=O)=O)cc1OC | 9.47
CCC(c1nnnn1Cc1ccccc1)N(Cc1cc2cc(OC)ccc2[nH]c1=O)CC1CCCO1 (centres unmarked) | -22.3
CCc1cccc(NC(=O)CCC(=O)O)c1 | 7.15
CSc1cccc(NC(=S)N(Cc2ccccc2)Cc2ccccn2)c1 | -6.65
Cc1ccccc1C(=O)Nc1ccc(C(=O)N/N=C/c2ccc(O)c(Br)c2)cc1 | -2.99
CCOC(=O)CNC(=O)c1ccccc1Br | 6.04
COC(=O)C1=C(C)NC(=O)NC1c1ccccc1 (centres unmarked) | 1.45
CCOC(=O)CSc1nc2ccccc2c(=O)n1CCCCCC(=O)NCc1ccco1 | -33.8
Cn1c(N)c(Sc2ccc([N+](=O)[O-])cc2)c(=O)n(C)c1=O | -17.7
CC(C)(C)CC(=O)NCc1ccc(F)cc1 | -13
CC(=O)N(c1c(C)n(C)n(-c2ccccc2)c1=O)C1(C(=O)NC2CCCC2)CCCCC1 | -8.96
